Among all 390,000 compounds or so, about 17,000 (4.4%) were called active. Inconclusive results, whose numbers are uncertain, are shown with a selection of clear calls. Calls follow the shape of the dose curve; as a rule, active = well fitted inhibition curve with a large enough effect; inconclusive = small, poorly fitted or top-dose-only effect; inactive = no such curve, though single readings can be large or run the other way. Potencies beside an inconclusive call are fits to weak or partial responses and may not hold up.
Target: Lysine-specific demethylase 4A (Homo sapiens) (UniProt O75164)
Experiment: qHTS Assay for Inhibitors of JMJD2A-Tudor Domain; also: nearly all actives have a fitted effect of over 50% in size
Conditions: AlphaScreen JMJD2A-Tudor / H3K4me3 peptide binding; activity change, negative = inhibition: at 114 µM (top of the series)
% is scaled to controls: 0 for no effect and ±100 for the full control effect; potency is read from the fitted curve at half-maximal effect; tags tell the direction and shape of the fitted curve.

Sequence of UniProt O75164 (O75164 whole entry, looked up, the tested form may be a part): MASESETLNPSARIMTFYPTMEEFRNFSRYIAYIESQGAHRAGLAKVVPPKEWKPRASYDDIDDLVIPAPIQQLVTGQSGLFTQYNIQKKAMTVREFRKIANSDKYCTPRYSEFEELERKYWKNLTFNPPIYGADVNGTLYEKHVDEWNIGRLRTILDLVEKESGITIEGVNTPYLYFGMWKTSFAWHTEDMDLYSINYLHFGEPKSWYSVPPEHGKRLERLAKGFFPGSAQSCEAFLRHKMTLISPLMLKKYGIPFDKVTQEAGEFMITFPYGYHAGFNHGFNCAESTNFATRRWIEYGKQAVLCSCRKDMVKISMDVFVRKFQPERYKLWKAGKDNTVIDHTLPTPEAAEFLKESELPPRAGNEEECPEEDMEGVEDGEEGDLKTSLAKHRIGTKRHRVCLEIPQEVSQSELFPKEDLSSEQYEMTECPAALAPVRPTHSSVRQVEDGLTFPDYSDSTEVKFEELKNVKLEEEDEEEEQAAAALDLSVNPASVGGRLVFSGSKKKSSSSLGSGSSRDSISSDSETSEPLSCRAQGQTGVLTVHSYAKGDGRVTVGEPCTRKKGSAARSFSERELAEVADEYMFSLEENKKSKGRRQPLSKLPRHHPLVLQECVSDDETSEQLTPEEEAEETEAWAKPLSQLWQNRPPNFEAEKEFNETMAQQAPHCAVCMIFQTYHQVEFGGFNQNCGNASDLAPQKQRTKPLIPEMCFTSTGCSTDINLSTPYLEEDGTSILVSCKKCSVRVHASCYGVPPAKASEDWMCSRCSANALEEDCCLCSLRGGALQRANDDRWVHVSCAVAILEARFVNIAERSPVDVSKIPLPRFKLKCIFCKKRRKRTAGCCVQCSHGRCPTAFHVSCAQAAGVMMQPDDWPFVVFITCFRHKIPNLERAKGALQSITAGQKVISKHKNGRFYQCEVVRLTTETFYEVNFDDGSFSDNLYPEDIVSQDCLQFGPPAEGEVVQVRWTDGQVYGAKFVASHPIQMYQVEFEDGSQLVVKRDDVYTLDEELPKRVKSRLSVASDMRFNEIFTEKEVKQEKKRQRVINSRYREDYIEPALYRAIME

Question: How did the Potency turn out when CN(C)c1ccc(C(C(=O)NC2CCCCC2)N(Cc2ccco2)C(=O)c2snc(C(N)=O)c2N)cc1 (centres undefined) was run?
Answer: inconclusive: 28.2 µM [inhibitor, partial curve]

Question: How did the “activity change, negative = inhibition” value turn out when COc1ccc(CN2CCN(C(C)C(=O)NC(C)c3ccc(F)cc3)CC2)cc1F (centres undefined) was run?
Answer: inactive: -7.43%

Question: With C=CCNc1nc(Nc2ccc(OC)cc2OC)nc(OCC)n1 as the compound, how does the Potency read?
Answer: inconclusive: 79.4 µM [inhibitor, single point]

Question: How did the Potency turn out when CCOC(=O)c1[nH]cnc1C(=O)Nc1ccc([N+](=O)[O-])cc1 was run?
Answer: inconclusive: 3.55 µM [inhibitor, full curve]

Question: How did the “activity change, negative = inhibition” value turn out when COc1ccc(-n2c(C)nc(N)c2C(=O)c2ccccc2)cc1 was run?
Answer: inactive: -16.7%

Question: How did the Potency turn out when O=C(NCc1ccco1)c1cc2nc(-c3ccc4c(c3)OCO4)cc(C(F)(F)F)n2n1 was run?
Answer: inconclusive: 89.1 µM [inhibitor, single point]

Question: How did the Potency turn out when CCn1c2ccc(C)cc2c2nnc(NN)nc21 was run?
Answer: inconclusive: 7.08 µM [inhibitor, partial curve]

Question: For COc1ccc(NC(=O)CCc2nnc3n(C)c(=O)c4sccc4n23)cc1, which “activity change, negative = inhibition” value is on record?
Answer: inactive: 7.85%

Question: How did the “activity change, negative = inhibition” value turn out when COc1ccc(NC(=O)CSc2nnc(C)s2)cc1S(=O)(=O)N1CCOCC1 was run?
Answer: inactive: -3.92%

Question: For O=c1[nH]c(=S)[nH]nc1Cc1ccccc1, which Potency is on record?
Answer: inconclusive: 31.6 µM [inhibitor, full curve, poor fit]

Question: With C=C(C)C(=O)Nc1cccc(C2=NOC3(C2)C[C@@H](C(N)=O)N(C(=O)c2ccc(OC)cc2)C3)c1 (some centres undefined) as the compound, how does the Potency read?
Answer: active: 2.82 µM

Question: C=CCn1c(-c2ccc3ncccc3c2)n[nH]c1=S was tested. Which Potency did it give?
Answer: active: 7.08 µM

Question: With COc1ccc(CNC(=O)CN(C(=O)c2snc(C(N)=O)c2N)c2ccccc2F)cc1 as the compound, how does the “activity change, negative = inhibition” value read?
Answer: inactive: -2.07%

Question: Which Potency does the source give for Cc1ccccc1-c1nc(C#N)c(N2CCC(C)CC2)o1 here?
Answer: inconclusive: 56.2 µM [inhibitor, partial curve]

Question: Which “activity change, negative = inhibition” value does the source give for CCN(Cc1ccccc1)C(=O)c1c(C)oc2ncn(C)c(=O)c12 here?
Answer: inactive: -9.71%

Question: For Cc1nc(C)c(C(=O)N(c2ccc(C)c(C)c2)C(C(=O)NCc2ccco2)c2ccccc2)s1 (centres undefined), which Potency is on record?
Answer: inconclusive: 50.1 µM [inhibitor, partial curve]

Question: CCN(CC)C(=O)n1cnc(-c2ccccc2)c1-c1ccccc1 was tested. Which Potency did it give?
Answer: inconclusive: 89.1 µM [inhibitor, single point]

Question: N=c1c2c(ccn1CCc1ccccc1)Oc1ccc3ccccc3c1C2c1ccccc1 (centres undefined) was tested. Which Potency did it give?
Answer: inconclusive: 7.94 µM [inhibitor, full curve]

Question: O=C1c2ccccc2C(=O)C1(c1ccccc1)N1CCN(c2cccc(Cl)c2)CC1 was tested. Which Potency did it give?
Answer: inconclusive: 28.2 µM [inhibitor, partial curve]

Question: With COc1cc(NC(=O)Cc2ccc(S(=O)(=O)N3CCOCC3)s2)c(OC)cc1Cl as the compound, how does the Potency read?
Answer: inconclusive: 28.2 µM [inhibitor, full curve, poor fit]

Question: Which “activity change, negative = inhibition” value does the source give for COC(=O)c1scc(-c2ccccc2)c1S(=O)(=O)Nc1ccccc1 here?
Answer: inactive: -4.81%

Question: With O=c1c2nnn(-c3ccc(Cl)cc3)c2ncn1Cc1ccccn1 as the compound, how does the “activity change, negative = inhibition” value read?
Answer: inactive: -20.4%

Question: With Cc1ccc(N=C2NC(=O)/C(=C/c3cn(C)c4ccccc34)S2)cc1C as the compound, how does the Potency read?
Answer: inconclusive: 28.2 µM [inhibitor, partial curve]

Question: Oc1ccc(COCc2ccccc2)c2cccnc12 was tested. Which Potency did it give?
Answer: inconclusive: 31.6 µM [inhibitor, single point]

Question: With O=C(O)CCCN(Cc1cccc(Br)c1)S(=O)(=O)c1ccc(Br)cc1 as the compound, how does the “activity change, negative = inhibition” value read?
Answer: inactive: -6.9%

Question: For CCOc1cc(-c2sc(Nc3cc(C)ccc3OC)n[n+]2-c2ccccc2)ccc1OC, which Potency is on record?
Answer: active: 56.2 µM

Question: COc1ccccc1/C=C/c1nc(C#N)c(N2CCCCC2)o1 was tested. Which “activity change, negative = inhibition” value did it give?
Answer: inactive: -5.97%

Question: With COc1ccc(CNc2cccc3[nH]c(C(F)(F)F)nc23)cc1OC as the compound, how does the Potency read?
Answer: inconclusive: 56.2 µM [inhibitor, partial curve]

Question: O=C(c1cccc([N+](=O)[O-])c1)N1CCN(c2cccc(Cl)c2)CC1 was tested. Which Potency did it give?
Answer: inconclusive: 35.5 µM [inhibitor, single point]

Question: With S=c1[nH]nc(C23CC4CC(CC(C4)C2)C3)n1Cc1ccco1 as the compound, how does the Potency read?
Answer: active: 50.1 µM

Question: For COc1ccc(-n2c(C)n[nH]c2=O)cc1, which Potency is on record?
Answer: inconclusive: 100 µM [inhibitor, single point]

Question: Which Potency does the source give for COc1ccc(N2CCN(C(=O)CCC(=O)c3cc(C)sc3C)CC2)cc1 here?
Answer: inconclusive: 39.8 µM [inhibitor, partial curve]

Question: With COc1ccc(C[C@H](C(=O)O)N2C(=O)c3ccc(C(=O)O)cc3C2=O)cc1 as the compound, how does the Potency read?
Answer: inconclusive: 89.1 µM [inhibitor, single point]

Question: Which “activity change, negative = inhibition” value does the source give for Cc1cc(C)cc(OCC(=O)Nc2cnn(CCCC(=O)O)c2)c1 here?
Answer: inactive: 7.58%

Question: For O=C(COC(=O)c1ccc2c(c1)C(=O)N(c1cccc3ncccc13)C2=O)c1ccc(Cl)cc1, which “activity change, negative = inhibition” value is on record?
Answer: inactive: -25%

Question: For O=C(O)c1ccc(C2CCCCC2)cn1, which Potency is on record?
Answer: active: 1.58 µM

Question: With CCOC(=O)c1[nH]c2ccc(F)cc2c1NC(=O)CN1CCN(C/C=C/c2ccccc2)CC1 as the compound, how does the Potency read?
Answer: inconclusive: 56.2 µM [inhibitor, partial curve, poor fit]

Question: With CC1CCCCN1C(=O)CSc1nc(-c2ccccc2)cn1N (centres undefined) as the compound, how does the Potency read?
Answer: inconclusive: 14.1 µM [inhibitor, full curve, poor fit]

Question: How did the Potency turn out when O=C1c2[nH]nc(-c3ccccc3O)c2C(c2ccc(Cl)cc2)N1Cc1ccco1 (centres undefined) was run?
Answer: inconclusive: 28.2 µM [inhibitor, partial curve]

Question: For CC(=O)Nc1ccc(NC(=O)CSc2n[nH]c(-c3cccs3)n2)cc1, which Potency is on record?
Answer: inconclusive: 20 µM [inhibitor, partial curve]

Question: For COc1ccc2c(/C=N/Nc3ccc(C(=O)O)cc3)c[nH]c2c1, which Potency is on record?
Answer: inconclusive: 7.94 µM [inhibitor, single point]

Question: COc1ccccc1NC(=O)c1c(Nc2ccccc2F)sc(C(=O)Nc2cccc(Cl)c2)c1N was tested. Which Potency did it give?
Answer: inconclusive: 44.7 µM [inhibitor, single point]

Question: Cc1ccc(/C=C/S(=O)(=O)NCCC(=O)NCc2ccccc2F)cc1 was tested. Which “activity change, negative = inhibition” value did it give?
Answer: inactive: 3.45%

Question: For CC1CCCCN1C(=O)c1cccc(NC2=C(Cl)C(=O)N(Cc3ccccc3)C2=O)c1 (centres undefined), which Potency is on record?
Answer: inconclusive: 14.1 µM [inhibitor, full curve, poor fit]

Question: How did the Potency turn out when CCc1ccc(-n2c(SCc3ccccc3F)nc3[nH]ncc3c2=O)cc1 was run?
Answer: inconclusive: 44.7 µM [inhibitor, partial curve, poor fit]

Question: For COc1cc(OC)cc(-c2nc(-c3ccccc3OC)no2)c1, which Potency is on record?
Answer: inconclusive: 39.8 µM [inhibitor, single point]

Question: With N#C/C(=C\c1c(N(Cc2ccccc2)Cc2ccccc2)nc2ccccn2c1=O)C(N)=O as the compound, how does the Potency read?
Answer: inconclusive: 56.2 µM [inhibitor, partial curve]

Question: How did the Potency turn out when CCCN1C(=O)c2ccccc2NC1c1ccc(OC)c(COc2ccc([N+](=O)[O-])c(C)c2)c1 (centres undefined) was run?
Answer: inconclusive: 39.8 µM [inhibitor, single point]

Question: With COc1ccc2c(C)cc(N3CCCCCC3)nc2c1 as the compound, how does the Potency read?
Answer: active: 12.6 µM

Question: How did the Potency turn out when COc1cccc(C2c3c(ncn(-c4ccccc4-c4ccccc4)c3=N)Oc3ccc4ccccc4c32)c1 (centres undefined) was run?
Answer: inconclusive: 44.7 µM [inhibitor, partial curve]

Question: For Cc1cccc(Nc2nc(N)c([N+](=O)[O-])c(N3CCC(C)CC3)n2)c1, which Potency is on record?
Answer: active: 31.6 µM

Question: For Cc1ccc(CNC(=O)CCCCn2c(=O)c3ccccc3n(Cc3c(C)cc(C)cc3C)c2=O)cc1, which “activity change, negative = inhibition” value is on record?
Answer: inactive: 4.45%

Question: Which Potency does the source give for Cc1ccc(N/N=C2/CCCNC2=O)cc1 here?
Answer: inconclusive: 15.8 µM [inhibitor, single point]

Question: How did the Potency turn out when C=CCn1c(CSc2nc3ccccc3s2)nnc1SCC(=O)NCc1ccccc1 was run?
Answer: inconclusive: 89.1 µM [inhibitor, single point]

Question: Which Potency does the source give for CCOc1cccc(-c2cc(C(=O)N/N=C/c3ccc(OC)c(CN4CCOCC4)c3)c3ccccc3n2)c1 here?
Answer: inconclusive: 4.47 µM [inhibitor, partial curve]

Question: With O=C(CSc1ccsc1[N+](=O)[O-])Nc1cccc(F)c1 as the compound, how does the Potency read?
Answer: active: 44.7 µM

Question: For Cc1cc(N2CCCCC2)nc2ccc(NC(=O)c3ccc(Br)o3)cc12, which Potency is on record?
Answer: inconclusive: 35.5 µM [inhibitor, partial curve]

Question: Which Potency does the source give for Cc1ccc(-c2c[nH]c(=S)n2-c2ccccc2)cc1 here?
Answer: inconclusive: 14.1 µM [inhibitor, partial curve, poor fit]

Question: Which Potency does the source give for COc1cc(-c2nc3nc[nH]n3c2Nc2ccc(C(C)C)cc2)ccc1O here?
Answer: inconclusive: 50.1 µM [inhibitor, single point]

Question: How did the Potency turn out when COc1ccc2oc(C(=O)N3CCN(C/C=C/c4ccccc4)CC3)c(C)c2c1 was run?
Answer: inconclusive: 15.8 µM [inhibitor, partial curve]

Question: How did the Potency turn out when COc1ccc(CCNCCN2CCOCC2)cc1 was run?
Answer: active: 20 µM

Question: For Clc1ccccc1-c1nn2c(-c3ccncc3)nnc2s1, which Potency is on record?
Answer: inconclusive: 56.2 µM [inhibitor, partial curve, poor fit]

Question: For CCc1nn(-c2ccccc2)c2nc(-c3cccc(OC)c3)c3cc(OC)c(OC)cc3c12, which “activity change, negative = inhibition” value is on record?
Answer: inactive: -15.4%

Question: Which Potency does the source give for CCn1nnc(NC(=O)CSc2ccc(Cl)cc2)n1 here?
Answer: inconclusive: 56.2 µM [inhibitor, partial curve]

Question: Which “activity change, negative = inhibition” value does the source give for Cc1ccc(N(C(=O)CNC(=O)c2ccco2)C(C(=O)NC2CCCCC2)c2cccnc2)c(C)c1 (centres undefined) here?
Answer: inactive: -5.71%

Question: With O=[N+]([O-])c1cccc(NC(=S)NCCc2ccccc2)c1 as the compound, how does the Potency read?
Answer: inconclusive: 56.2 µM [inhibitor, partial curve]

Question: Which “activity change, negative = inhibition” value does the source give for CC(C)C(=O)N(c1ccc2oc(=O)sc2c1)S(=O)(=O)c1cccs1 here?
Answer: inactive: -25.7%

Question: N#CCSc1nc(-c2ccccc2)nc2ccc(F)cc12 was tested. Which Potency did it give?
Answer: inconclusive: 89.1 µM [inhibitor, single point]

Question: How did the Potency turn out when Cn1nc(C(=O)NNC(=O)c2ccc(Cl)cc2)ccc1=O was run?
Answer: inconclusive: 39.8 µM [inhibitor, single point]
